Some of the results follow. Some results are limits rather than exact numbers.

The values that follow come from a collection of fitness landscapes (doi:10.1126/science.1257360).

B1: PhoQ; a variant is named by its letters at X, in order, P23837 (parent)
chain: MKKLLRLFFPLSLRVRFLLATAAVVLVLSLAYGMVALIGYSVSFDKTTFRLLRGESNLFYTLAKWENNKLHVELPENIDKQSPTMTLIYDENGQLLWAQRDVPWLMKMIQPDWLKSNGFHEIEADVNDTSLLLSGDHSIQQQLQEVREDDDDAEMTHSVAVNVYPATSRMPKLTIVVVDTIPVELKSSYMVWSWFIYVLSANLLLVIPLLWVAAWWSLRPIEALAKEVRELEEHNRELLNPATTRELTSLVRNLNRLLKSERERYDKYRTTLTDLTHSLKTPLXXLQXXLRSLRSEKMSVSDAEPVMLEQISRISQQIGYYLHRASMRGGTLLSRELHPVAPLLDNLTSALNKVYQRKGVNISLDISPEISFVGEQNDFVEVMGNVLDNACKYCLEFVEISARQTDEHLYIVVEDDGPGIPLSKREVIFDRGQRVDTLRPGQGVGLAVAREITEQYEGKIVAGESMLGGARMEVIFGRQHSAPKDE

The variants in the test derive from B1. Nature of the test: enrichment ratio after two sorts for PhoP signalling (ratio (wild type AVST 3.29)); higher = more functional. The settings on record: with PhoP (E. coli).
As for LLVN, the enrichment ratio is ≤ 0.25.

With KMLN, the enrichment ratio is ≤ 0.25.

For LVGP, the enrichment ratio is ≤ 0.25.

For the variant THHS, the enrichment ratio is ≤ 0.25.

On to PLVK, for which the enrichment ratio was ≤ 0.25.

HDAQ: the enrichment ratio is ≤ 0.25.

With PSLP, the enrichment ratio is ≤ 0.25.

Turning to IWES, the enrichment ratio is ≤ 0.25.

As to NIHS, the enrichment ratio is ≤ 0.25.

As for KDCD, the enrichment ratio was ≤ 0.25.

On to VPMG, for which the enrichment ratio was ≤ 0.25.

Take IQNQ: the enrichment ratio was ≤ 0.25.

Consider KDLI, for which the enrichment ratio is ≤ 0.25.

LVDS: the enrichment ratio is ≤ 0.25.

Turning to SMNK, the enrichment ratio is ≤ 0.25.

Regarding FIVS, the enrichment ratio was ≤ 0.25.

IMNE: the enrichment ratio is ≤ 0.25.

Turning to PLGL, the enrichment ratio is ≤ 0.25.

Turning to WGWW, the enrichment ratio is ≤ 0.25.

For KMDH, the enrichment ratio was ≤ 0.25.

For PQPT, the enrichment ratio was ≤ 0.25.

KYNW: the enrichment ratio is ≤ 0.25.

Regarding SYQP, the enrichment ratio was ≤ 0.25.

In the case of NMNK, the enrichment ratio is ≤ 0.25.

EPTW: the enrichment ratio is ≤ 0.25.

Take SGQP: the enrichment ratio was ≤ 0.25.

With GECR, the enrichment ratio is ≤ 0.25.

As to WYLI, the enrichment ratio is ≤ 0.25.

WLCR: the enrichment ratio was ≤ 0.25.

Take MELC: the enrichment ratio is 10.6.

For HWIN, the enrichment ratio is ≤ 0.25.

Regarding TLFN, the enrichment ratio was ≤ 0.25.

Consider QGWC, for which the enrichment ratio was 7.22.

Regarding THKL, the enrichment ratio was ≤ 0.25.

In the case of TLCP, the enrichment ratio is ≤ 0.25.

For FYNS, the enrichment ratio was ≤ 0.25.

With TLPQ, the enrichment ratio is ≤ 0.25.

In the case of DTNL, the enrichment ratio was ≤ 0.25.

With YWIC, the enrichment ratio is ≤ 0.25.

As to NPLH, the enrichment ratio is ≤ 0.25.

Take HFPS: the enrichment ratio is ≤ 0.25.

On to GNCM, for which the enrichment ratio was 11.7.

As to VHAQ, the enrichment ratio is ≤ 0.25.

Turning to RNAD, the enrichment ratio is ≤ 0.25.

For NFNP, the enrichment ratio is ≤ 0.25.

For SEPM, the enrichment ratio is ≤ 0.25.

On to FIDS, for which the enrichment ratio is ≤ 0.25.

With VENV, the enrichment ratio is ≤ 0.25.

As to RSEN, the enrichment ratio is ≤ 0.25.

For TDFY, the enrichment ratio is ≤ 0.25.

Regarding ELCM, the enrichment ratio was ≤ 0.25.

As for ELFW, the enrichment ratio was ≤ 0.25.

With CINL, the enrichment ratio was ≤ 0.25.

Take FIGW: the enrichment ratio is ≤ 0.25.

For the variant VIVD, the enrichment ratio was ≤ 0.25.

Consider YMVP, for which the enrichment ratio is ≤ 0.25.

Take REPN: the enrichment ratio was ≤ 0.25.

On to SSWG, for which the enrichment ratio is ≤ 0.25.

For the variant EQYD, the enrichment ratio is ≤ 0.25.

For the variant GSYF, the enrichment ratio was ≤ 0.25.

Turning to WSVS, the enrichment ratio was ≤ 0.25.

Consider KYYM, for which the enrichment ratio is ≤ 0.25.

For the variant RFYI, the enrichment ratio is ≤ 0.25.

In the case of DCPS, the enrichment ratio is ≤ 0.25.

Regarding MQNF, the enrichment ratio was ≤ 0.25.

As to FCCS, the enrichment ratio is ≤ 0.25.

As to LGYC, the enrichment ratio was ≤ 0.25.

As to MFYN, the enrichment ratio was ≤ 0.25.

Consider TACC, for which the enrichment ratio was determined as 13.6.

As to IWYC, the enrichment ratio was ≤ 0.25.

Consider NHAH, for which the enrichment ratio is ≤ 0.25.

As for RAKL, the enrichment ratio was ≤ 0.25.

Regarding CLLT, the enrichment ratio was ≤ 0.25.

Consider VIWS, for which the enrichment ratio is ≤ 0.25.

As to DDTV, the enrichment ratio was ≤ 0.25.

As for MCIK, the enrichment ratio is ≤ 0.25.

SRCL: the enrichment ratio worked out at 6.4.

For the variant IQWP, the enrichment ratio is ≤ 0.25.

Turning to IWSR, the enrichment ratio is ≤ 0.25.

Regarding DIYV, the enrichment ratio is ≤ 0.25.

For the variant AGTP, the enrichment ratio is ≤ 0.25.

Turning to YNSY, the enrichment ratio was ≤ 0.25.

As to NKAC, the enrichment ratio is ≤ 0.25.

Consider QIWT, for which the enrichment ratio came to 20.8.

With RVKG, the enrichment ratio is ≤ 0.25.

Turning to KFSC, the enrichment ratio stood at 0.256.

As for LFGG, the enrichment ratio is ≤ 0.25.

For SDAE, the enrichment ratio was ≤ 0.25.

With EPLG, the enrichment ratio was ≤ 0.25.

Consider VLCM, for which the enrichment ratio was ≤ 0.25.

For AELV, the enrichment ratio was 24.4.

In the case of FWWG, the enrichment ratio is ≤ 0.25.

Consider ILIQ, for which the enrichment ratio is ≤ 0.25.

For the variant IVYL, the enrichment ratio was ≤ 0.25.

Take RNVW: the enrichment ratio was ≤ 0.25.

As for MDTK, the enrichment ratio is ≤ 0.25.

As for KCAR, the enrichment ratio was ≤ 0.25.

KTYN: the enrichment ratio was ≤ 0.25.

VTCY: the enrichment ratio was ≤ 0.25.

For the variant FGDA, the enrichment ratio was ≤ 0.25.

In the case of GNAN, the enrichment ratio was ≤ 0.25.

HYSR: the enrichment ratio was ≤ 0.25.

As to FPEA, the enrichment ratio was ≤ 0.25.

In the case of HRKG, the enrichment ratio is ≤ 0.25.

With YNPK, the enrichment ratio is ≤ 0.25.

Consider INGC, for which the enrichment ratio is ≤ 0.25.

Consider YDGQ, for which the enrichment ratio was ≤ 0.25.

Take TEIA: the enrichment ratio is 5.22.

Take SWFK: the enrichment ratio is ≤ 0.25.

Consider NLLG, for which the enrichment ratio was ≤ 0.25.

Regarding PPCK, the enrichment ratio is ≤ 0.25.

On to NAHN, for which the enrichment ratio was ≤ 0.25.

In the case of PLTK, the enrichment ratio is ≤ 0.25.

With DGGW, the enrichment ratio was ≤ 0.25.

With FTVR, the enrichment ratio was ≤ 0.25.

For the variant VDFA, the enrichment ratio was ≤ 0.25.

Turning to IRGW, the enrichment ratio was ≤ 0.25.

Turning to YHKV, the enrichment ratio is ≤ 0.25.

With HHVK, the enrichment ratio is ≤ 0.25.

Consider GIGL, for which the enrichment ratio turned out to be 8.6.

Regarding DAWT, the enrichment ratio was ≤ 0.25.

Regarding WDRL, the enrichment ratio is ≤ 0.25.

For the variant NYKV, the enrichment ratio is ≤ 0.25.

PAVV: the enrichment ratio is ≤ 0.25.

Regarding NQFE, the enrichment ratio is ≤ 0.25.

Consider VFPD, for which the enrichment ratio is ≤ 0.25.

In the case of WFVH, the enrichment ratio was ≤ 0.25.

For the variant ALTQ, the enrichment ratio came out at 8.14.

In the case of PDLV, the enrichment ratio was ≤ 0.25.

For QDHT, the enrichment ratio was ≤ 0.25.

WHPM: the enrichment ratio is ≤ 0.25.

On to AQVG, for which the enrichment ratio was 12.

On to YKTI, for which the enrichment ratio came to 0.324.

With EAEC, the enrichment ratio was ≤ 0.25.

Turning to SSGF, the enrichment ratio worked out at 8.38.

Take DPMT: the enrichment ratio is ≤ 0.25.

FGNV: the enrichment ratio was ≤ 0.25.

Turning to LRKY, the enrichment ratio was ≤ 0.25.

Turning to WRLA, the enrichment ratio was ≤ 0.25.

On to SLHG, for which the enrichment ratio is ≤ 0.25.

Consider QLNV, for which the enrichment ratio was ≤ 0.25.

For RTWP, the enrichment ratio is ≤ 0.25.

With FYLG, the enrichment ratio was ≤ 0.25.

In the case of HTAP, the enrichment ratio was ≤ 0.25.

Take GVKH: the enrichment ratio was ≤ 0.25.

As for TIGP, the enrichment ratio was ≤ 0.25.

Take KETS: the enrichment ratio was ≤ 0.25.

With ATVV, the enrichment ratio was 10.2.

SYKW: the enrichment ratio was ≤ 0.25.

Consider ARHI, for which the enrichment ratio is ≤ 0.25.

As for PYTN, the enrichment ratio was ≤ 0.25.

Consider IGMF, for which the enrichment ratio is ≤ 0.25.

Consider MYTP, for which the enrichment ratio was ≤ 0.25.

On to NYVQ, for which the enrichment ratio is ≤ 0.25.

RVGM: the enrichment ratio is ≤ 0.25.

Regarding FMHQ, the enrichment ratio was ≤ 0.25.

Turning to NSMI, the enrichment ratio is 2.19.

As to AKTD, the enrichment ratio was ≤ 0.25.

With HRGQ, the enrichment ratio is ≤ 0.25.

Consider YSMS, for which the enrichment ratio is ≤ 0.25.

On to LACQ, for which the enrichment ratio was ≤ 0.25.

As for IEYR, the enrichment ratio is ≤ 0.25.

Take KYWN: the enrichment ratio is ≤ 0.25.

With VTVW, the enrichment ratio is ≤ 0.25.

In the case of FPCQ, the enrichment ratio was ≤ 0.25.

For DWQH, the enrichment ratio was ≤ 0.25.

Take MIDW: the enrichment ratio is ≤ 0.25.

Regarding MING, the enrichment ratio was ≤ 0.25.

As to LDWE, the enrichment ratio was ≤ 0.25.

For ESMG, the enrichment ratio is ≤ 0.25.

With MDID, the enrichment ratio was ≤ 0.25.

For LQSV, the enrichment ratio was ≤ 0.25.

Regarding MNWR, the enrichment ratio is ≤ 0.25.

In the case of ADVT, the enrichment ratio is ≤ 0.25.

For DGSF, the enrichment ratio is ≤ 0.25.

For the variant DKWD, the enrichment ratio was ≤ 0.25.

As to GYHR, the enrichment ratio is ≤ 0.25.

For FKCW, the enrichment ratio was ≤ 0.25.

With DRAM, the enrichment ratio is ≤ 0.25.

In the case of ETQS, the enrichment ratio was ≤ 0.25.

HTHL: the enrichment ratio is ≤ 0.25.

For NKWD, the enrichment ratio was ≤ 0.25.

Regarding TFDQ, the enrichment ratio is ≤ 0.25.

On to DEPL, for which the enrichment ratio is ≤ 0.25.

Consider RDCE, for which the enrichment ratio is ≤ 0.25.

Take ARGV: the enrichment ratio is ≤ 0.25.

In the case of MRAF, the enrichment ratio is ≤ 0.25.

LGWF: the enrichment ratio is ≤ 0.25.

Regarding PKHH, the enrichment ratio is ≤ 0.25.

Regarding QWYR, the enrichment ratio is ≤ 0.25.

For PMMT, the enrichment ratio is ≤ 0.25.

Take GYED: the enrichment ratio is ≤ 0.25.

Regarding ETFV, the enrichment ratio is ≤ 0.25.

As to SWFF, the enrichment ratio is ≤ 0.25.

For the variant MTRF, the enrichment ratio is ≤ 0.25.
